# This is one part of the list. At the low end of the ranking the order means little.
# Target: GST-SBP-SLBP (stem-loop binding protein) (UniProt Q14493)
# Experiment: targeted RNA Bind-n-Seq;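 also: DESeq read counts versus GST-SBP nonspecific binding control pulldown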
# Details: RBNS binding buffer: 25 mM Tris pH 7.5, 150 mM KCl, 3 mM MgCl2, 0.1% Tween, 0.5 mg/mL BSA, 1 mM DTT; 27 nM protein, 750 pM RNA pool; temperature not stated; high values mean tight binding
row,Sequence,binding signal (log2 fold change)
1,GGUCACGUCUCAAUCAACUCUACUCCCAGGGAAAACCCUGGCUAAUUCAACAGCUCGCAGUCAAG,-0.021
2,GGUCACGUCUCAAUCAACUCAUUUCCCAGGGAAAUCCCUGGCUUUUUCAACAGCUCGCAGUCAAG,-0.301
3,GGUCACGUCUCAAUCAACUCAUAAGAGGGGGGGAAAACCCCUUUGCCCUCCACAUCAACAGCUCGCAGUCAAG,0.145
4,GGUCACGUCUCAAUCAACUCUAUCUCCAGGGAAAUCCCUGGCAAUUUCAACAGCUCGCAGUCAAG,-0.0912
5,GGUCACGUCUCAAUCAACUCUAGUCCCAGGGAAAACCCUGGCUUAUUCAACAGCUCGCAGUCAAG,-0.279
6,GGUCACGUCUCAAUCAACUCAACUUCCAGGGAAAUCCCUGGCAUACUCAACAGCUCGCAGUCAAG,0.0156
7,GGUCACGUCUCAAUCAACUCAGUCGAGGGGGGGAAAACCCCUUUACCCUCAAUAUCAACAGCUCGCAGUCAAG,-0.076
8,GGUCACGUCUCAAUCAACUCUAUUUCAGGAGUUUUCUCCUGCUAUUUCAACAGCUCGCAGUCAAG,0.0639
9,GGUCACGUCUCAAUCAACUCACUAGAGGGGGGGAAAACCCCUUUACCCUCCCAAUCAACAGCUCGCAGUCAAG,-0.0462
10,GGUCACGUCUCAAUCAACUCAACUUCCAGGGAAAACCCUGGCGUAUUCAACAGCUCGCAGUCAAG,0.25
11,GGUCACGUCUCAAUCAACUCAUUUCCCAGGGAAAUCCCUGGCUAUCUCAACAGCUCGCAGUCAAG,0.0811
12,GGUCACGUCUCAAUCAACUCUACUCCCAGGGAAAGCCCUGGCAUACUCAACAGCUCGCAGUCAAG,0.193
13,GGUCACGUCUCAAUCAACUCAUUCUCCAGGGAAACCCCUGGUUAUUUCAACAGCUCGCAGUCAAG,0.0201
14,GGUCACGUCUCAAUCAACUCUCUAGAGGGGGGGAAAACCCCUUUACCCUCCUACUCAACAGCUCGCAGUCAAG,-0.00694
15,GGUCACGUCUCAAUCAACUCUUUAGAGGGGGGGAAAACCCCUUUGCCCUCAACAUCAACAGCUCGCAGUCAAG,0.187
16,GGUCACGUCUCAAUCAACUCAAUCCCAGGAGUUUACUCCUGUAGUCUCAACAGCUCGCAGUCAAG,-0.00604
17,GGUCACGUCUCAAUCAACUCAAUCCCAGGAGUUUUCUCCUGCAAAUUCAACAGCUCGCAGUCAAG,-0.0302
18,GGUCACGUCUCAAUCAACUCAAUUCCAGGAGUUUACUCCUGCUUAUUCAACAGCUCGCAGUCAAG,-0.0529
19,GGUCACGUCUCAAUCAACUCAGUCUCAGGAGUUUCCUCCUGCUUUUUCAACAGCUCGCAGUCAAG,0.0254
20,GGUCACGUCUCAAUCAACUCAUACGAGGGGGGGAAAACCCCUUUACCCUCACCAUCAACAGCUCGCAGUCAAG,0.0959
21,GGUCACGUCUCAAUCAACUCUCACGAGGGGGGGAAAACCCCUUUACCCUCUUAAUCAACAGCUCGCAGUCAAG,0.161
22,GGUCACGUCUCAAUCAACUCAAUUCCCAGGGAAAGCCCUGGUUUAUUCAACAGCUCGCAGUCAAG,-0.109
23,GGUCACGUCUCAAUCAACUCACAAGAGGGGGGGAAAACCCCUUUGCCCUCAUAAUCAACAGCUCGCAGUCAAG,-0.548
24,GGUCACGUCUCAAUCAACUCCUCGGAGGGGGGGAAAACCCCUUUACCCUCACUAUCAACAGCUCGCAGUCAAG,0.194

row,Sequence,binding signal (log2 fold change)
1,GGUCACGUCUCAAUCAACUCAUUCUCCAGGGAAAGCCCUGGCUUACUCAACAGCUCGCAGUCAAG,-0.0371
2,GGUCACGUCUCAAUCAACUCUAAAGAGGGGGGGAAAACCCCUUUGCCCUCAAACUCAACAGCUCGCAGUCAAG,0.183
3,GGUCACGUCUCAAUCAACUCACUAGAGGGGGGGAAAACCCCUUUGCCCUCAACAUCAACAGCUCGCAGUCAAG,-0.0129
4,GGUCACGUCUCAAUCAACUCAAGUCCAGGAGUUUUCUCCUGCUUUUUCAACAGCUCGCAGUCAAG,-0.122
5,GGUCACGUCUCAAUCAACUCUUUCUCCAGGGAAAGCCCUGGUAAAUUCAACAGCUCGCAGUCAAG,0.00876
6,GGUCACGUCUCAAUCAACUCUAUAGAGGGGGGGAAAACCCCUUUACCCUCCGCAUCAACAGCUCGCAGUCAAG,-0.477
7,GGUCACGUCUCAAUCAACUCAUUCCCCAGGGAAAUCCCUGGUUAUUUCAACAGCUCGCAGUCAAG,-0.0761
8,GGUCACGUCUCAAUCAACUCAAUCUCCAGGGAAAACCCUGGCUAACUCAACAGCUCGCAGUCAAG,0.0527
9,GGUCACGUCUCAAUCAACUCUUCAGAGGGGGGGAAAACCCCUUUACCCUCAACCUCAACAGCUCGCAGUCAAG,-0.347
10,GGUCACGUCUCAAUCAACUCAAUCCCAGGAGUUUUCUCCUGCAAUGUCAACAGCUCGCAGUCAAG,0.317
11,GGUCACGUCUCAAUCAACUCAUUCCCCAGGGAAAGCCCUGGUAUACUCAACAGCUCGCAGUCAAG,-0.0868
12,GGUCACGUCUCAAUCAACUCCACAGAGGGGGGGAAAACCCCUUUACCCUCAUACUCAACAGCUCGCAGUCAAG,-0.713
13,GGUCACGUCUCAAUCAACUCUUCCCCCAGGGAAAUCCCUGGUUAUUUCAACAGCUCGCAGUCAAG,0.297
14,GGUCACGUCUCAAUCAACUCAUUUCCAGGAGUUUUCUCCUGCUUAGUCAACAGCUCGCAGUCAAG,-0.00368
15,GGUCACGUCUCAAUCAACUCUUCCCCCAGGGAAAUCCCUGGUUUAUUCAACAGCUCGCAGUCAAG,0.0378
16,GGUCACGUCUCAAUCAACUCUUCCUCAGGAGUUUUCUCCUGCUAUCUCAACAGCUCGCAGUCAAG,0.0992
17,GGUCACGUCUCAAUCAACUCAUUUUCAGGAGUUUUCUCCUGCAUUCUCAACAGCUCGCAGUCAAG,-0.187
18,GGUCACGUCUCAAUCAACUCAAUGUCAGGAGUUUGCUCCUGCUAAUUCAACAGCUCGCAGUCAAG,0.116
19,GGUCACGUCUCAAUCAACUCACCCGAGGGGGGGAAAACCCCUUUACCCUCAAAAUCAACAGCUCGCAGUCAAG,-0.251
20,GGUCACGUCUCAAUCAACUCUAUUUCAGGAGUUUCCUCCUGUUAACUCAACAGCUCGCAGUCAAG,-0.0415
21,GGUCACGUCUCAAUCAACUCAUUCUCCAGGGAAACCCCUGGUAAACUCAACAGCUCGCAGUCAAG,0.0104
22,GGUCACGUCUCAAUCAACUCUUCCCCCAGGGAAACCCCUGGCAAAUUCAACAGCUCGCAGUCAAG,0.221
23,GGUCACGUCUCAAUCAACUCAGUUUCCAGGGAAAUCCCUGGCUUUUUCAACAGCUCGCAGUCAAG,0.0938

# From article PMC5892938
